PubChem BioAssay AID624202 (National Center for Advancing Translational Sciences (NCATS), 2012)
In all, about 380,000 compounds went through this assay and about 4,000 (1.1%) were called active. The inconclusive results got no clear call from the source; some entries with a clear call stand among them for comparison. Calls come from the whole dose curve; as a rule, active = well fitted activation curve with a large enough effect; inconclusive = small, poorly fitted or top-dose-only effect; inactive = no such curve, though single readings can be large or run the other way. A potency beside an inconclusive call is a rough fit, not a confirmed value.

Test: qHTS Assay to Identify Small Molecule Activators of BRCA1 Expression; note: nearly all actives have a fitted effect of over 80% in size
Settings: MCF7-BRCA1-FFLuc reporter, luminescence, 48 h; activation: at 46.1 µM (top of the series), scaled: vehicle 0%, 10 µM genistein 100% unless noted
Summary of the method: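 Luminescence from a BRCA1-driven firefly luciferase in MCF7 cells was the read-out, taken 15 min after substrate addition following 48 h compound exposure at 37 °C. Data were normalized to a 10 microM genistein control and DMSO vehicle.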
Potency is the fitted concentration of half-maximal effect; tags give direction and shape of the fitted curve.

Structure (SMILES)	activation	Potency
O=C(Oc1ccc(Cl)c2cccnc12)c1cccc([N+](=O)[O-])c1	inactive: -60.7%	–
Cc1ccc(C(=O)N/N=C\c2ccccc2[N+](=O)[O-])cn1	–	active: 4.47 µM
O=C(Cn1cnc2ccccc21)c1ccccc1	inactive: 53.6%	–
Brc1ccccc1/C=N/Nc1nc2ccccc2o1	–	inconclusive: 20 µM [activator, single point]
CCOc1ccc(C(=O)Nc2cccc(C)n2)cc1	–	inconclusive: 2.51 µM [activator, full curve, poor fit]
O=C(NCc1ccc(F)cc1)c1ccc2nc(N3CCCCC3)sc2c1	–	inconclusive: 0.562 µM [activator, full curve, poor fit]
Cc1cccc(-n2ncc3c(N4CCC(C)CC4)ncnc32)c1	–	inconclusive: 10 µM [activator, partial curve, poor fit]
O=C(CCNC(=O)c1ccco1)Nc1nc(-c2ccccc2)cs1	–	inconclusive: 35.5 µM [activator, single point]
Oc1ccc(/C=N/NC(=S)Nc2cccnc2)cc1	–	inconclusive: 8.91 µM [activator, partial curve, poor fit]
O=C(Nc1ccc2c(c1)OCO2)c1noc2c1CCCC2	–	inconclusive: 0.501 µM [activator, full curve, poor fit]
Nc1nc2ccccc2n1C(=O)c1ccccc1	inconclusive: -35% [activator]	–
Cc1ccc(-c2ccc(C3=CC(=O)CC(C)(C)C3=O)cc2)cc1	–	active: 2.24 µM
Cc1ccc(NC(=O)C2(c3ccccc3)CC2(Cl)Cl)cc1C (stereo not drawn)	inactive: -13.9%	–
Cc1ccc2oc(=O)c(/C=C(\O)c3ccccc3)nc2c1	–	active: 7.08 µM
CCN(CC)Cc1c(O)ccc2cc(-c3nc4ccccc4n3C)c(=O)oc12	–	active: 11.2 µM
Cc1nc(N2CCN(Cc3ccccc3)CC2)nc2c1C(=O)CC(c1ccco1)C2 (stereo not drawn)	inactive: -36.1%	–
COc1cccc(OCC(=O)Nc2ccccc2C(N)=O)c1	–	inconclusive: 3.55 µM [activator, full curve, poor fit]
COc1ccccc1OCC(=O)Nc1cccc(-c2nc3ccccc3o2)c1	–	inconclusive: 15.8 µM [activator, single point]
CCN(CCCNC(=O)c1nn(C)c2c1CS(=O)(=O)c1ccccc1-2)Cc1ccccc1	inactive: 1.49%	–
COc1cc(Cl)cc(/C=C/c2ccc3ccccc3n2)c1OC(C)=O	inconclusive: -8.49% [activator]	–
Cc1ccc(S(=O)(=O)NNC(=S)NCCc2ccccc2)cc1	inactive: -14.7%	–
COc1ccc(NC(=O)C2C3CC/C=C\CCC32)cc1 (stereo not drawn)	–	inconclusive: 3.55 µM [activator, full curve, poor fit]
COC(=O)c1ccc(Oc2c(Cl)cccc2[N+](=O)[O-])cc1	inactive: 1.3%	–
O=c1c2ccccc2nc2sc3ccccc3n12	–	inconclusive: 15.8 µM [activator, single point]
COc1ccc(CC(=O)NCc2cccc(Cl)c2)cc1S(=O)(=O)N1CCOCC1	inactive: 1.81%	–
Oc1ccc(Br)cc1/C=N/N1CCCCC1	–	inconclusive: 22.4 µM [activator, single point]

Structure (SMILES)	activation	Potency
COc1ccc(C=C(C(=O)O)c2ccc(OC)cc2)cc1	inactive: 58.4%	–
CN(C)c1ccc(CNc2nc3ccccc3n2C)cc1	–	inconclusive: 1.58 µM [activator, full curve, poor fit]
Cc1cc2nnc(SCC(=O)Nc3ccc(F)c(Cl)c3)n2c2ccccc12	inactive: 5.65%	–
COc1ccc(CNc2oc(-c3ccccc3)nc2C#N)cc1	–	inconclusive: 11.2 µM [activator, partial curve, poor fit]
CCCS(=O)(=O)NC(=O)C1(C)CCCN(C(=O)c2cc3ccccc3s2)C1 (stereo not drawn)	inactive: 0%	–
Nc1nnc(SCCOc2ccc(Br)cc2)s1	–	active: 11.2 µM
CCOC(=O)c1sc(NC(=O)Nc2ccc(Cl)cc2)nc1C	–	inconclusive: 2.24 µM [activator, partial curve, poor fit]
C/C(=N/NC(=O)c1ccc(NC(=O)c2ccc(F)cc2)cc1)c1ccccc1	–	active: 12.6 µM
c1ccc(-c2ccc(-n3ccnc3)cc2)cc1	–	active: 10 µM
CC(=O)Oc1ccc2cc(-c3ccccc3)c(=O)oc2c1	–	inconclusive: 8.91 µM [activator, partial curve, poor fit]
CCCC(=O)Nc1ccc(N2CCCCC2)cc1	–	inconclusive: 12.6 µM [activator, partial curve, poor fit]
CCOc1ccc2c(c1)S/C(=C\c1cccs1)C(=O)N2	–	inconclusive: 1.26 µM [activator, full curve, poor fit]
O=C(CC1C(=O)NCCN1Cc1cccc(F)c1)NCCCOc1cccnc1 (stereo not drawn)	inactive: -2.42%	–
COc1ccc(N)c2c1C(=O)c1ccccc1C2=O	–	inconclusive: 11.2 µM [activator, partial curve, poor fit]
O=C(CNC(=O)c1ccc(F)cc1)N/N=C/c1cc(Br)ccc1OCc1ccccc1	inactive: 15.9%	–
CN(C(=O)c1ccc(OC2CCN(CCc3ccccc3)CC2)cc1)C1CCOC1 (stereo not drawn)	inactive: 43.9%	–
C=CCSC1=NNC(c2ccc(C(C)(C)C)cc2)=NN1	–	active: 7.08 µM
COc1cc(OC)cc(C(=O)N=c2sc3ccccc3n2C)c1	–	inconclusive: 2.24 µM [activator, partial curve, poor fit]
CCOc1cccc(-c2csc(C3COc4ccccc4O3)n2)c1 (stereo not drawn)	–	active: 5.01 µM
C=CCOC(=O)c1sc(NC(=O)c2ccc(OC)cc2)nc1C	inconclusive: 108% [activator]	–
Cc1ccc(NCc2ccccc2O)cc1C	–	inconclusive: 20 µM [activator, partial curve, poor fit]
Cc1ccc(CNC(=O)Cc2noc3ccccc23)cc1	–	inconclusive: 1.58 µM [activator, full curve, poor fit]
COc1cccc(C(=O)Nc2cccc(SC)c2)c1	–	active: 12.6 µM
O=C(c1cccs1)N1CCC(c2ccccc2)C1 (stereo not drawn)	–	active: 3.55 µM
CCSc1nnc(NC(=O)c2cc3c(s2)CCCC3)s1	–	active: 7.94 µM
CS(=O)(=O)c1ccccc1-c1nnc(NC(=O)Cc2ccccc2)o1	–	inconclusive: 7.94 µM [activator, partial curve, poor fit]

Structure (SMILES)	activation	Potency
CCn1c(=O)c2sccc2n2c(CCC(=O)Nc3ccc(OC)cc3OC)nnc12	inactive: -10.1%	–
O=C(CSc1ncnc2c1nnn2Cc1ccc(F)cc1)NCC1CCCO1 (stereo not drawn)	inactive: -5.07%	–
O=C(/C=C/c1cccc([N+](=O)[O-])c1)Nc1ccccn1	–	inconclusive: 2.82 µM [activator, full curve, poor fit]
CC(C)(C)S(=O)(=O)c1cnc(-c2ccc(Cl)cc2)nc1N	–	active: 2.82 µM
COc1ccc(N2CCN(c3nccs3)CC2)cc1	–	active: 11.2 µM
Cc1[nH]c2ccccc2c1C(=O)C(=O)Nc1ccc2c(c1)OCO2	–	active: 2.51 µM
O=C(CCc1nnc(-c2ccsc2)o1)N1CCc2c(Cl)cccc2C1	–	active: 11.2 µM
O=C(C1CC1)N(Cc1nc2ccccc2c(=O)[nH]1)Cc1cccs1	inactive: -0.475%	–
Cc1ccc(C)n1-c1ccc(C(=O)Nc2ccccc2)cc1	–	inconclusive: 35.5 µM [activator, single point]
COc1ccc(NC(=O)C2=Cc3ccccc3OC2)cc1	–	inconclusive: 1.58 µM [activator, partial curve, poor fit]
CCOc1ccc(C(=O)c2cn(CC(=O)Nc3ccc(F)c(F)c3)c3cc4c(cc3c2=O)OCCO4)cc1	inactive: -14.5%	–
O=C(c1cc(COc2cccc(C(F)(F)F)c2)on1)N1C[C@H]2CC[C@H]1C2	–	active: 12.6 µM
CCc1ccc(NC(=O)c2[nH]c(C)c(C(C)=O)c2C)cc1	–	inconclusive: 1.41 µM [activator, full curve, poor fit]
c1ccc(-c2onc3cc4c(cc23)OCCO4)cc1	–	inconclusive: 3.16 µM [activator, full curve, poor fit]
CCc1ccccc1-n1ncc(C(=O)Nc2ccc(OC)cc2)c1C	–	inconclusive: 1.26 µM [activator, full curve, poor fit]
O=C(C=Cc1ccccc1)N1CCCCC1	–	inconclusive: 7.94 µM [activator, partial curve, poor fit]
CCc1ccc(OCC(=O)O/N=C(\N)c2ccccn2)cc1	–	inconclusive: 1.78 µM [activator, full curve, poor fit]
Cc1ccccc1C(=O)NCC(=O)c1ccccc1	–	inconclusive: 1.58 µM [activator, full curve, poor fit]
Cc1cccc(NC(=O)CCNS(=O)(=O)c2cccc3nsnc23)c1	–	inconclusive: 35.5 µM [activator, single point]
CCCCn1ccnc1C(=O)c1cccc(S(=O)(=O)N2CC(C)CC(C)C2)c1 (stereo not drawn)	inactive: -41.1%	–
C=CCNC(=O)c1ccc(-c2nc(-c3ccc(Cl)cc3Cl)cs2)cc1	–	active: 11.2 µM
CCOc1cc(/C=C2\SC(N3CCCCC3)=NC2=O)ccc1O	–	inconclusive: 14.1 µM [activator, single point]
COc1ccc(-n2c(-c3cccc(C)c3[N+](=O)[O-])n[nH]c2=S)cc1	inactive: 19.4%	–
Clc1nccnc1N/N=C/c1ccc(Br)cc1	–	inconclusive: 2.82 µM [activator, full curve, poor fit]
C=CCn1c(SCC(=O)NCC)nnc1-c1cc2c(s1)CCC(CC)C2 (stereo not drawn)	–	inconclusive: 17.8 µM [activator, single point]
CC(C)Oc1cccc(C(=O)C2CCCN(C(=O)CCc3cnn(C)c3)C2)c1 (stereo not drawn)	–	inconclusive: 3.55 µM [activator, partial curve, poor fit]
